Experimental data published in the supplement of paper PMC4166925.
± gives the standard deviation of the averaged measurements. Over roughly 33,000 sequences, “E-score (dimensionless, -0.5 to 0.5)” has its median near -0.046; the highest 2% begin near 0.36. The list shows a part of the results.

What follows are sequences tested on T1, SpTbr T-box DNA-binding domain (GST fusion) (assay: PBM E-score of 8-mer (E-score (dimensionless, -0.5 to 0.5)); Tbr is Tbrain of the sea star Patiria miniata (Pm) or the sea urchin Strongylocentrotus purpuratus (Sp); higher = stronger binding preference; most listed sequences are background and not binding sites). Conditions: the construct has about 5 more residues each side.
T1 sequence: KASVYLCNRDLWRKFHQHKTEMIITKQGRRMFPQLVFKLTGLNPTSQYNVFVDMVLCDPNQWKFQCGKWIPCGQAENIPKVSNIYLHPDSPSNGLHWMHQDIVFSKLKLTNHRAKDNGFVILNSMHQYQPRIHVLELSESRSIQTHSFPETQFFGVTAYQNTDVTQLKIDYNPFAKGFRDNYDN
How it was run: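 Each ungapped 8-mer received an enrichment E-score from the Universal PBM Analysis Suite, averaged over duplicate arrays. The proteins were Tbr T-box DNA-binding domains, covering the whole T-box plus about five flanking residues, fused to GST and expressed in BL21 E. coli at 20 °C before glutathione affinity purification. Universal Agilent oligonucleotide arrays were made double-stranded by primer extension and incubated with 200 nM protein in PBS (pH 7.5). The arrays were then scanned and quantified, and every 8-mer was scored from probe intensities.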

Sequence	PBM E-score of 8-mer
ATAGTAAG	-0.227 ± 0.022
GCGAGTTA	0.101 ± 0.045
CAGCTTCG	0.189 ± 0.0024
GACTTCGA	0.0525 ± 0.043
CGCAACCG	0.191 ± 0.065
GATTTAGA	-0.218 ± 0.035
AAATGAAG	-0.126 ± 0.012
AACGCGCA	-0.0531 ± 0.065
ACTGCTGA	0.178 ± 0.011
ACAAACCA	-0.162 ± 0.037
ATACCCTG	-0.119 ± 0.008
AGAATAAG	0.00056 ± 0.059
CCTGTAGA	-0.145 ± 0.0029
GCCATCTA	-0.101 ± 0.012
AGATCAAA	-0.158 ± 0.035
CTAAGCCA	-0.131 ± 0.046
CTGAGTAA	-0.162 ± 0.021
ATAATAAC	0.128 ± 0.035
ACTCCACG	0.207 ± 0.0069
AGTCCCAG	-0.163 ± 0.059
AAAAAATT	-0.228 ± 0.12
CCGTTAAC	0.228 ± 0.007
GGGCCGCA	-0.13 ± 0.0072
AGTTGGAC	-0.178 ± 0.04
CTCCTTGA	-0.166 ± 0.03

Sequence	PBM E-score of 8-mer
ACCAAGCT	-0.00647 ± 0.016
CATGTTGG	-0.162 ± 0.0039
GGCAATCA	-0.11 ± 0.02
CACCAGGG	0.0496 ± 0.1
ACGAGTAT	-0.0491 ± 0.014
GCGGAGGA	-0.108 ± 0.04
AAACGGAA	-0.072 ± 0.08
ACGCGTGG	0.203 ± 0.021
CCAGACGC	-0.0704 ± 0.012
CAACTAAC	0.132 ± 0.016
CCTATGGA	-0.195 ± 0.0078
CCTGGTGC	0.231 ± 0.035
AACCTAAC	-0.0237 ± 0.04
AAGGTGGG	0.242 ± 0.042
TGCCCAAA	-0.135 ± 0.019
CCAGATAA	0.0671 ± 0.096
GGCATTTA	-0.0361 ± 0.0046
ATGTGTAC	-0.00571 ± 0.026
AGCACTAC	-0.0189 ± 0.027
ATGAGCTG	0.0357 ± 0.018
ACCCTGCG	0.153 ± 0.0069
AAGTGCCT	-0.0646 ± 0.037
CAACCGGC	-0.166 ± 0.0048
ATTAGCTA	0.0659 ± 0.026
ATTCGCCC	-0.116 ± 0.045

Sequence	PBM E-score of 8-mer
ATAGCGCC	0.212 ± 0.02
CAAGCAGA	-0.205 ± 0.028
CCGTGACA	0.241 ± 0.028
AGGCTTTG	-0.219 ± 0.016
CGGGTGGC	0.153 ± 0.045
GATCTGTA	-0.081 ± 0.025
GTATCTGA	-0.0397 ± 0.012
AGGTCATG	-0.129 ± 0.0072
AGGTCAGA	-0.191 ± 0.058
ATGCTCGG	-0.0579 ± 0.0043
TTAGTCAA	-0.129 ± 0.018
CTCCCGGC	-0.0668 ± 0.032
AAACGTCT	-0.218 ± 0.09
CGTTGTCA	0.294 ± 0.014
AAGTGGAT	-0.102 ± 0.058
CCGAGGCC	-0.143 ± 0.041
CAACTGTC	0.23 ± 0.0054
ATACTTCC	-0.0311 ± 0.024
GACTGGGC	-0.219 ± 0.021
GAATACTC	-0.0382 ± 0.037
ACGTGGGG	-0.127 ± 0.012
ATACGAGA	-0.127 ± 0.0036
CGATCTGC	0.000155 ± 0.049
GCGAGGTA	0.0707 ± 0.033
GTCGATGA	0.213 ± 0.0032

Sequence	PBM E-score of 8-mer
AGTCAGCA	-0.0176 ± 0.0093
ACAGGGGA	-0.104 ± 0.046
CCTTGTCC	-0.138 ± 0.0016
TACGTGGA	-0.0926 ± 0.031
CGTTGAAG	0.0941 ± 0.031
CTCTGCTC	-0.146 ± 0.017
AGCTTAAT	-0.164 ± 0.064
CCTCTAGA	-0.201 ± 0.0095
ATACTTGC	0.0754 ± 0.026
GCGAGTAC	0.1046 ± 0.00019
CCGCAAAA	0.027 ± 0.0036
ATTAGACC	-0.22 ± 0.017
GTGGGAAA	0.3193 ± 0.0012
CAACGACC	-0.138 ± 0.018
AGGACCCC	-0.239 ± 0.017
CGGGCCCA	-0.27 ± 0.046
CCGATTCA	-0.0626 ± 0.029
CCGGGTAC	-0.0634 ± 0.0066
CTCACCCA	0.202 ± 0.017
GACTATCC	-0.0837 ± 0.046
ATTAGTAG	-0.0283 ± 0.097
CTCCCATC	-0.193 ± 0.11
AACAACTT	0.134 ± 0.048
GCCACGGA	-0.1 ± 0.094
CAGAGACA	0.0443 ± 0.011

Sequence	PBM E-score of 8-mer
ACACCTCT	0.479 ± 0.0083
ACAACTTC	0.146 ± 0.046
CGGCCTCA	-0.0875 ± 0.037
GAATTAGA	-0.203 ± 0.013
ACACTTTG	0.379 ± 0.005
GCTGCAAA	0.0289 ± 0.04
TTATGAAA	-0.0615 ± 0.018
AGCTCGTC	-0.287 ± 0.087
AATCGAAG	-0.0748 ± 0.089
CAATCCTG	0.143 ± 0.045
CACTCCGG	0.278 ± 0.018
ATGGCTGA	-0.185 ± 0.028
CGCCGGAC	-0.231 ± 0.019
ATTTGCGG	-0.0823 ± 0.027
CCGATGCC	-0.223 ± 0.03
TAGCGAGA	0.171 ± 0.013
AACCCTCT	-0.219 ± 0.054
AGCCTAGC	-0.0329 ± 0.015
AGACCCGA	0.114 ± 0.051
CCGCGTCA	0.132 ± 0.026
TGCTACCA	0.00517 ± 0.074
CTACACTC	0.0766 ± 0.037
ACCTCTTG	0.0732 ± 0.065
TAGCACGA	0.141 ± 0.021
AACCCGAA	0.00605 ± 0.041

Sequence	PBM E-score of 8-mer
AGTACGAG	-0.276 ± 0.028
AACGGCGT	0.112 ± 0.033
CGACTTAG	0.11 ± 0.017
GCTAACTA	0.116 ± 0.011
GCCCCTTA	-0.159 ± 0.063
ACTCTTCG	0.113 ± 0.071
GCCCTAAA	-0.147 ± 0.027
ACCAAACG	-0.00694 ± 0.035
GAGTTTAC	0.136 ± 0.052
ACTCCAGT	-0.143 ± 0.032
CTACTGTC	0.1 ± 0.024
ACTAACAT	-0.0379 ± 0.014
GAGGTCCC	-0.117 ± 0.013
AATTATCG	0.0187 ± 0.065
TGCGCACA	0.0613 ± 0.041
TACTAGTA	-0.239 ± 0.0066
ATATTACC	-0.0985 ± 0.0069
GAGTTCGA	-0.139 ± 0.071
AATCGGGG	-0.0949 ± 0.017
AGAAGAAA	-0.151 ± 0.011
AATATAGC	0.0183 ± 0.026
CGCGGGGC	-0.0601 ± 0.11
GCTAGCAA	0.162 ± 0.021
CAGCCGCC	-0.0473 ± 0.0081
ACTAGAGC	0.0656 ± 0.034

Sequence	PBM E-score of 8-mer
ACATAGGA	-0.1859 ± 0.00088
GCTCTCGA	0.0727 ± 0.01
CCGACTCA	-0.0198 ± 0.019
CAAGAGTA	-0.214 ± 0.013
GAGACCAC	-0.126 ± 0.036
CGATCGGA	-0.24 ± 0.025
AGTTTGTA	-0.151 ± 0.011
CGATTACG	-0.0587 ± 0.08
ATATCGAC	0.0956 ± 0.0078
CGTATTCA	0.13 ± 0.05
ATACCAGC	-0.0597 ± 0.0054
AGGTTGAT	-0.0456 ± 0.014
ATTTGAAG	-0.272 ± 0.061
GACCTACC	-0.129 ± 0.006
TATAGAGA	-0.258 ± 0.068
CGCGACTC	0.233 ± 0.018
CGTGACAC	0.38 ± 0.015
AGCAGATG	-0.0124 ± 0.045
CCATTTCA	-0.22 ± 0.089
AATCGAAA	-0.0861 ± 0.034
CTCATGTA	-0.0391 ± 0.0025
GCAACGAC	0.0844 ± 0.037
